# Reference: the RNAGym collection of RNA variant scans (doi:10.7554/elife.90254)
# The source gives no read counts; variants with many changes may rest on few reads.
# B1: LINE1-mini (parent)
# chain: GGCAGAGCUCAACACAGCGUGGCAAAGUGGCUGUGGCUAGACUGCC
# Variants of: B1
# Test: self-cleavage, relative activity (ratio to wild type); higher = more cleavage; in vitro, sequencing; the parent is a self-cleaving ribozyme
row,Variant,self-cleavage
1,A6G C31U G35U,0.01
2,G7A A11U C15U U20A,0.04
3,A6G C37A A39G C42G U43C,0.01
4,A6G G29C G40C,0.06
5,A6U C10U A25C,0.08
6,A6U G7C A24G A26G G40U,0.27
7,A6U G27C G35A U38C,0.04
8,A6G G29A C37U,0
9,A6U G35U G36A,0.44
10,A6G G17A G19C U38C,0.05
11,A6U C15A G27A C31G G35U C37G,0.03
12,A6U A12G U28A G30C C31G,0.01
13,A6U A41G C42A C45U,0.09
14,A6G G27C U28A G36A,0.05
15,A6U U20A A25C,0.85
16,A6G G7U U38A,0.02
17,A6U C18U G27U G36C,0.07
18,G7A C13U C37U G44C,0.36
19,A6U U9G U20C G21A,0.05
20,A6U C8U C15A C45U,0.12
21,A6U G7C C31U C45A,0.02
22,G7A C8U G21C G29C U32A,0.11
23,A6U A11U C13G C18G A25U,0
24,A6G G19A G22C C42U,0.02

row,Variant,self-cleavage
1,G7A C8A U20C U34C C42A,0.14
2,A6U U28C C37G C42U,0.06
3,A6G G19U C31U C37U,0.01
4,A6U A24G C31U C42G,0.01
5,A6G G21A C37G U43C,0.02
6,G7A C10U A24C C31U,0.06
7,A6U C8U A12C A16C A39G G40U,0.02
8,A6U G7A U9G C31U,0.01
9,A6U C13U C18U C23A,0.16
10,A6U C8G G36U G40U,0.07
11,G7A C10A G21C U43G,0
12,A6U U32A U38C,0.02
13,A6U G22U G30U,1.46
14,A6U G22U G30C,2.5
15,A6G G21U C23U C37U,0.12
16,A6U C8G A25C G44C,0.05
17,A6U C10G U20C C31A,0.02
18,A6U C13G G27C G30C,0.02
19,G7A A16C G30U,0.31
20,A6U A26U U34C C37G G44C,0.06
21,A6U C13U G33U C45A,0.13
22,A6U A11C C13U G19U G27U C37G,0
23,A6U G19U A24U,0.6
24,G7A C8U U28C G33C,0.3

row,Variant,self-cleavage
1,A6U A39U A41U,0.62
2,A6U G17C G33U,0.02
3,A6G G19U A39U G44A,0.06
4,A6U C8A C15G G27C,0.03
5,A6U G30U C45G,0.87
6,G7A C15A A41U,0.25
7,G7A C8U U38G,0.05
8,G7A C10A G19U U28C G33C,0.03
9,G7A A11G C31U U32A,0.01
10,A6U A11C G33A,0.04
11,A6G U38G A39U,0
12,A6U U9C C10G U38A,0.01
13,A6U G21A G35U,0.1
14,A6G G22A C23G,0.06
15,A6G G7C G17U G27A C45G,0.08
16,A6U A25C A41C,0.02
17,A6G U9A C13A C42G,0.01
18,G7A A11G G17A G29U C46G,0.02
19,G7A C15A C23G U32A,0.08
20,A6U A25G C42U,0.15
21,A6U U9G A12G G22A U28A G33C,0
22,G7A C8A C23U A24U,0.06
23,A6U C13G G36U,0.24
24,A6U C42U U43A,0.04

row,Variant,self-cleavage
1,A6U C10U G29U,0.14
2,A6U A12U A14G G17A G40U,0.02
3,A6U C10G U20A,0.05
4,A6U C8U G21A G33A,0.14
5,A6U C13G G35U,0.55
6,A6G G17C U32C C46G,0.03
7,A6U G19C G33A,0.07
8,A6U A14G A16G G17U,0.02
9,G7A C10A C15U,0.02
10,G7A C8A A16C,0.22
11,A6G G17U G36A,0.02
12,A6U G27U G35U U43C,0.06
13,A6U C13U U28G C31A G33A,0.19
14,A6U U9G C10U G44C,0.1
15,A6U U9A G33A,0.17
16,A6U C10A C15G,0
17,A6U G7U U9A G19C U38A G40A,0.01
18,A6U G17U G21C A24G A25C A39U C42A,0.05
19,G7A C15G G17C C18A G35C,0.06
20,A6G U9G G29U G35U,0.01
21,A6G U9G C10A C18A C37A,0
22,A6U G7A C15U A16C C46U,0.54
23,G7A C8A C23A G30C,0.12
24,G7A A14G C23U,0.14

row,Variant,self-cleavage
1,A6U A12G A41C C45U,0.08
2,A6U G7U U20C A41C,0.15
3,A6U C15U C42A,0.17
4,A6U G29A U32G U38C,0.09
5,A6U U28C G33A U43C,0.1
6,A6G U9A A11U C13A G19A G27U C45U,0.02
7,A6U G35U C37U A39U C42G,0
8,A6U G19U G40A,0.03
9,G7A C13G G27U G44U,0.06
10,A6U C10A A16C G17A U20C,0.01
11,G7A A24U U38G,0.06
12,G7A C15G G29A,0.11
13,G7A C10G G21U,0.02
14,A6U U9A U28G G33U,0.14
15,A6U G7U G30U C46U,0.08
16,A6U A11C C13G G19C G40A A41U,0
17,G7A A12U G19U U32C,0.03
18,A6U G7A C13G G17U G22A G40U,0.02
19,A6U C15U U20G A25C,0.05
20,A6U A11C A16C G19A G40C,0
21,A6G C23A U38A,0.01
22,A6U C8U U20G G44A,0.05
23,A6U A14G C15U C23U A25G A39U,0.3
24,A6U C15A C18A U20C G29C,0.21

row,Variant,self-cleavage
1,A6G U20C G21C A26G,0.01
2,A6U C42A C45A,0.01
3,A6U A14U C31U,0.06
4,A6U C10A G27A U38G A41C,0
5,A6U A12G A16G G29C C42G,0
6,A6U C23G A41U,0.06
7,A6G G27C G33U,0.1
8,A6U A39U C42G U43C C46U,0.03
9,A6U A16G U32G A39G,0.02
10,A6U U28G C31A,0.09
11,A6U U9A G21U G30A,0.16
12,G7A A12U G22A C23G,0.01
13,A6U C23A A39C,0.35
14,A6U A11U C13G C37U,0.01
15,A6U C8A G36A,0.51
16,A6U G22U U34G C37G,0.08
17,G7A A16C U34A,0.03
18,A6G G7U U20C,0.09
19,A6U C10A A26C,0.05
20,A6U A24G A25G,0.19
21,A6G C42G G44U,0.04
22,A6U A14G G19U C23U,0.36
23,A6U C13G A16C,0.05
24,G7A C13A G17C G22C G44U,0.09

row,Variant,self-cleavage
1,G7A C10A G17C G35C G36U,0.03
2,A6G C23G A25U G30A,0.11
3,A6U C37G U38A,0.04
4,A6U G19C U34C,0.26
5,A6G U20G C42U,0.04
6,A6G G29A A39U,0.18
7,A6U U9G G33U,0.01
8,G7A C10U C45U,0.08
9,G7A C8G G36C C42A,0.04
10,A6G G29U C46G,0.12
11,A6U C18A U32C G33C C45G,0
12,A6U C37U U43A,0.12
13,A6U A16C C23A G33A,0.08
14,A6G G29A G33C G35U G40C U43A,0.02
15,G7A C13U G21U C23G A24U C31U,0.03
16,G7A C10G G22A C23G,0.03
17,A6U U9G A14G G22A A26C U28C G36C,0.06
18,A6U C10A A12G G29U C37U,0
19,A6U A11C C13A U38A,0
20,A6U G17A U32G,0.03
21,A6U C23A A26G,0.47
22,A6U C42U U43G G44C,0.15
23,A6G U38C A39C,0.01
